Assay results taken from the RNAGym collection of RNA variant scans (doi:10.1093/nar/gkz1192).
Read counts are not given, so values of variants with three or more changes are uncertain.

B1: CPEB3 Ribozyme (parent)
chain: UAACAGGGGGCCACAGCAGAAGCGUUCACGUCGCAGCCCCUGUCAGAUUCUGGUGAAUCUGCGAAUUCUGCUGUAUAUCUC

Variants of: B1
Assay: self-cleavage, relative activity (ratio to wild type); higher = more cleavage; in vitro, sequencing
Method in brief: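 Barcoded CPEB3 ribozyme mutants, produced by rounds of error-prone PCR, self-cleaved while being transcribed with T7 RNA polymerase for 5 hours at 37°C and during a subsequent 15 min DNase I step before EDTA was added. Sequencing of template-switched cDNA on Illumina gave cleaved and total reads, and DNA sequencing assigned barcodes to variants. Each variant's relative activity is its cleaved/total read fraction divided by the unmutated ribozyme's fraction, averaged across three batches. A variant needed a minimum of 5 reads.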

Variant | self-cleavage
A3G C29U U41C U66A U67C U74C | 0.13
A3G C29U U43C A57G U60C A64G | 0.07
A3G C32A C39A U60C U67C U78C | 0.09
A3G C32U U41G | 0.1
A3G C32U U51C U54C A64U U80C | 0.18
A3G C34G U41C G55U A64G U78C | 0.1
A3G C37U U41C A45G G63A | 0.51
A3G C38A U41G A45U U67C | 0.22
A3G C38G U51C U54C U69A A75U | 0.25
A3G C39U A47G | 0.73
A3G C39U A64U C81A | 0.12
A3G C40A U41C | 0.1
A3G C40A U43A A56U | 0.09
A3G C44U A45G U69A | 0.35
A3G C44U U48C U80C | 0.13
A3G C44U U66C | 0.4
A3G C50G U58C | 0.3
A3G C59U G70A U72G | 0.17
A3G C62A G63U | 0.54
A3G C68U U76C | 1.11
A3G G6A A15C A64G | 0.6
A3G G6A A18G G55A U67C U69A | 0.05
A3G G6A C32U U60A U67C | 0.08
A3G G6A G7A U26C A28G | 0.4

Variant | self-cleavage
A3G G6A U25C U31G U49C C71A U72C | 0.13
A3G G6A U26C | 0.4
A3G G6A U80C | 0.56
A3G G6U A13U A35G U67C U74A | 0.25
A3G G6U A13U A75G U80C | 0.17
A3G G6U A15U U25C C29U A45G U58A | 0.08
A3G G6U A18U U25C U43C | 0.48
A3G G6U A21G C32U A35G U80C | 0.11
A3G G6U C12A U26C | 0.43
A3G G6U U25C C71A | 0.32
A3G G6U U25C U31G A45G G52A | 0.06
A3G G6U U43C | 0.44
A3G G6U U60C | 0.05
A3G G7A A15G C17U A21G C39U A57G | 0.05
A3G G7A A15U U48C | 0.08
A3G G7A A20G U66C | 0.27
A3G G7A A20U G22U C39A A64G A77U | 0.05
A3G G7A A21G | 0.12
A3G G7A A21G U60C | 0.09
A3G G7A C50G U51C A65G | 0.08
A3G G7A C71U U72C | 0.24
A3G G7A G16U A35U C62U A64G U72A | 0.09
A3G G7A U48C U51C | 0.29
A3G G7C A13G U26C A64C | 0.1

Variant | self-cleavage
A3G G7C A13G U43A U58C | 0.08
A3G G7C A15G U31A U54C U74A A77U | 0.1
A3G G7C A15U U51A U74C | 0.41
A3G G7C A18G A77G | 0.74
A3G G7C A21G U51A | 0.09
A3G G7C A47U | 0.13
A3G G7C C40U U41C A47G G63C U80C | 0.06
A3G G7C U72A U80C | 0.81
A3G G7U A15G U26C A45C G52C A56G | 0.33
A3G G7U A28G A35G U43A G52A U80C | 0.08
A3G G7U A28U A47G U48A | 0.07
A3G G7U A75G | 0.5
A3G G7U U49C U58A C62U U67G | 0.04
A3G G7U U54C U58A A77U | 0.34
A3G G8A A13G | 0.61
A3G G8A A13G A18G | 0.58
A3G G8A A13U U66A U80A | 0.24
A3G G8A A15U U31C A35U A56G | 0.03
A3G G8A A20U C32A U51C U60A U67A | 0.06
A3G G8A A28U U41C U72A U74A | 0.11
A3G G8A A35G C37G A45G U72C | 0.07
A3G G8A A35G U41A U72A | 0.05
A3G G8A A35U U60C U69A U72C | 0.05
A3G G8A A45G | 0.09

Variant | self-cleavage
A3G G8A C34U | 0.24
A3G G8A C34U A45G | 0.06
A3G G8A G19A A64G A75G U76A | 0.09
A3G G8A G46C G55U U60A U72C | 0.38
A3G G8A U54A | 0.48
A3G G8C U26A G53U U80C | 0.49
A3G G8U A75U | 0.43
A3G G8U C38U U54A | 0.06
A3G G8U G9A A18U | 0.13
A3G G8U G52A G53U U67A | 0.1
A3G G9A A13C G24C A35G A77U | 0.69
A3G G9A A13U U26C C62U | 0.11
A3G G9A A13U U76A | 0.75
A3G G9A A15G A21G U72A | 0.1
A3G G9A A21G U54C A64G U76A | 0.08
A3G G9A A21G U58C U69A A77G | 0.06
A3G G9A A21U C39U G46U A47U | 0.22
A3G G9A A57G U58C | 0.47
A3G G9A C11U U26G U31C C40U U74G | 0.04
A3G G9A C29U U41A G55A A75U | 0.05
A3G G9A U80C | 0.15
A3G G9U A15G G24A U31A U78C U80C | 0.07
A3G G9U A28U A57G A64G | 0.27
A3G G9U A35U U78C | 0.07

Variant | self-cleavage
A3G G9U C11U A18C U78C | 0.06
A3G G9U G70A | 0.1
A3G G9U U26C U43A U54C U60C | 0.08
A3G G9U U51C U67C | 0.22
A3G G10A A18U G52C U72A A75U A77G | 0.04
A3G G10A A20G G52C A57U | 0.06
A3G G10A A21G A47G | 0.44
A3G G10A A21G U25C A28U U58C U69A | 0.22
A3G G10A A21U U43G U48C C59U | 0.29
A3G G10A A21U U66C U72A | 0.19
A3G G10A G36U U60C G61A G63C U72C | 0.09
A3G G10A U26G A56G U67A | 0.43
A3G G10A U31C G33A U43A U66C | 0.08
A3G G10A U51C U54C A56G U60A G70C | 0.25
A3G G10A U54C | 0.1
A3G G10C A15U A20G | 0.45
A3G G10C A15U U54A | 0.08
A3G G10U A15G A64U U66C | 0.04
A3G G10U U41G A45U U48C U60A U80C | 0.06
A3G G16A A18G A57G U60A | 0.18
A3G G16A A35G U48C U76A U78C | 0.41
A3G G16A G52A G55C A75G U80C | 0.28
A3G G16A U41A A57G A64G | 0.4
A3G G16U A28G | 0.19

Variant | self-cleavage
A3G G16U A28G A45U A65G C71G | 0.08
A3G G19A U48C | 0.43
A3G G19C A21G C40U | 0.06
A3G G19C G22A C40G A77G | 0.18
A3G G19C G55C A64G | 0.29
A3G G19U G33C U67C U72C | 0.09
A3G G19U U51A U69G | 0.29
A3G G22A U25C | 0.16
A3G G22A U25C C62U U74A | 0.37
A3G G22C U26C U60A U66A A77G | 0.25
A3G G22U U48C A56G U58G | 0.34
A3G G24A A35G A45G A64G | 0.31
A3G G24A A45G A56U | 0.1
A3G G24A A45G U76A | 0.1
A3G G24A G55U A56U U58C U74C U80A | 0.29
A3G G24A U41A A57G | 0.28
A3G G24A U41C A45G U69A | 0.09
A3G G24A U72G | 0.36
A3G G24U A35G | 0.64
A3G G24U C40U | 0.12
A3G G24U U69C | 0.16
A3G G30A A47G U58C A64G | 0.66
A3G G30A C37G | 0.67
A3G G30A U58A U78C | 0.2

Variant | self-cleavage
A3G G30C G70U | 0.35
A3G G33A A57G A65G | 0.21
A3G G33A A64U U67A U80C | 0.14
A3G G33A A64U U72C U80C | 0.08
A3G G33A C71G | 0.06
A3G G33A C71U U78C | 0.1
A3G G33A U60C | 0.08
A3G G33C C62U A64U | 0.13
A3G G33C G52U | 0.36
A3G G33U C37U | 0.42
A3G G36A A65G | 0.39
A3G G36A C38G A45U A56U A57G U72C | 0.11
A3G G36A U66C A77G | 0.06
A3G G36A U69C | 0.13
A3G G36C U69A | 0.31
A3G G36U A56U A64G | 0.12
A3G G42A A75G | 0.12
A3G G42A C59G U72C | 0.3
A3G G42A U51C U58C | 0.14
A3G G52C A65G A77C | 0.43
A3G G52C U54A A64U U69C U80C | 0.85
A3G G53A U66A | 0.48
A3G G53U U58A A64G U76A | 0.32
